The text below walks through data of the supplement of paper PMC11348887.

Structures can show the parent of a compound that is named as a salt. The list shows a part of the results. Rule as the data show it: active = -2 or less and inactive = the rest. Many values rest on one well or one pass, so single values are uncertain.
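Also: nuclei counted from DAPI counterstain by automated high-content image analysis, four fields per well at ×20 in 384-well plates, with sequential b-score then z-score normalization.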

In this assay the test system is hPSC-derived cortical neurons (WA09). Briefly: nuclei number (viability) z-score; higher = more surviving cells. Particulars: 5 µM; treatment: days 7-14 after plating, readout day 21.
Consider `CC(=O)[C@H]1CC[C@H]2[C@@H]3CC=C4C[C@@H](O)CC[C@]4(C)[C@H]3CC[C@]12C` [Pregnenolone], for which the “nuclei number (z-score)” value was inactive: -0.814.
Regarding `CN(C)c1ccc(C(=C2C=CC(=[N+](C)C)C=C2)c2ccc(N(C)C)cc2)cc1` [Crystal Violet], the “nuclei number (z-score)” value is active: -7.04.
In the case of `C[C@@H](O)[C@H]1C(=O)N2C(C(=O)[O-])=C(SC3Cn4cnc[n+]4C3)[C@H](C)[C@H]12` (stereo partly specified) [Biapenem] it was inactive: 0.529; in that of `Cc1nc(-c2ccc(OCC(C)C)c(C#N)c2)sc1C(=O)O` [Febuxostat], inactive: 0.217.
In the case of `Cc1cc(Nc2nc(N[C@@H](C)c3ccc(F)cc3)c(C#N)cc2F)n[nH]1` it was active: -4.02; in that of `CC(C)c1ccc2c(c1)c(SC(C)(C)C)c(CC(C)(C)C(=O)O)n2Cc1ccc(Cl)cc1`, inactive: 0.0771.
The same measure for `CCN1CCN(Cc2ccc(-c3cc4c(N[C@H](C)c5ccccc5)ncnc4[nH]3)cc2)CC1`: inactive: 1.14; for `CCOC(=O)c1c(CSc2ccccc2)n(C)c2cc(Br)c(O)c(CN(C)C)c12` [Arbidol HCl]: inactive: 0.877; for `COc1cc(N2CCC(N3CCN(C)CC3)CC2)ccc1Nc1ncnc(Nc2ccccc2S(=O)(=O)C(C)C)n1`: inactive: -1.09.
With `CCN(CCO)CCCC(C)Nc1ccnc2cc(Cl)ccc12` (stereo unspecified) [Hydroxychloroquine Sulfate], the “nuclei number (z-score)” value is inactive: 0.104.
The same measure for `Cc1nc(Nc2ncc(C(=O)Nc3c(C)cccc3Cl)s2)cc(N2CCN(CCO)CC2)n1` [Dasatinib Monohydrate]: active: -6.41; for `Cc1nc(Nc2ncc(C(=O)Nc3c(C)cccc3Cl)s2)cc(N2CCN(CCO)CC2)n1` [Dasatinib]: inactive: 3.15.
In the case of `COc1cc([C@@H]2c3cc4c(cc3[C@@H](O[C@@H]3O[C@@H]5CO[C@@H](c6cccs6)O[C@H]5[C@H](O)[C@H]3O)[C@H]3COC(=O)[C@H]23)OCO4)cc(OC)c1O` [Teniposide] it was active: -5.28; in that of `O=C1NC(=O)/C(=C/c2ccc3c(c2)OC(F)(F)O3)S1`, inactive: -0.01.
In the case of `CCOc1ccccc1OC(c1ccccc1)C1CNCCO1` (stereo unspecified) [Reboxetine mesylate] it was inactive: -0.852.
Consider `O=c1[nH]cnc2c1ncn2[C@@H]1O[C@H](CO)[C@@H](O)[C@H]1O` [Inosine], for which the “nuclei number (z-score)” value was inactive: 1.53.
The same measure for `CN(C)CCCN1c2ccccc2Sc2ccc(Cl)cc21` [Chlorpromazine HCl]: inactive: -0.58; for `C[C@H](Nc1ncnc2[nH]cnc12)c1cc2ccc(F)cc2nc1-c1ccccn1`: inactive: -0.0374.
The same measure for `Nc1ccc(C(=O)Nc2cccc(-c3nc(N4CCOCC4)c4oc5ncccc5c4n3)c2)cn1`: active: -2.08.
As to `O=c1ccc2ccccc2o1` [Coumarin], the “nuclei number (z-score)” value is inactive: 0.112.
The same measure for `Nc1nc(=S)c2ncn([C@H]3C[C@H](O)[C@@H](CO)O3)c2[nH]1`: inactive: 0.435; for `CCOc1ccc(C[C@H]2NC(=O)CCSSC[C@@H](C(=O)N3CCC[C@H]3C(=O)N[C@@H](CCCN)C(=O)NCC(N)=O)NC(=O)[C@H](CC(N)=O)NC(=O)[C@H]([C@@H](C)O)NC(=O)[C@H]([C@@H](C)CC)NC2=O)cc1` [Atosiban Acetate]: inactive: -0.0774; for `Cc1nc(-c2cccnc2)sc1C(=O)Nc1ccccc1-c1cn2c(CN3CCOCC3)csc2n1`: inactive: -0.312.
Regarding `COc1ccnc(C[S+]([O-])c2nc3cc(OC(F)F)ccc3[nH]2)c1OC` (stereo unspecified) [Pantoprazole sodium], the “nuclei number (z-score)” value was inactive: 0.528.
For the compound `Cc1cc(C)c(S(=O)(=O)n2cc(C)cc2C)c(C)c1`, the “nuclei number (z-score)” value is inactive: -0.954.
As for `Cc1[nH]c2ccccc2c1CCNCc1ccc(/C=C/C(=O)NO)cc1` [Panobinostat (LBH589)], the “nuclei number (z-score)” value is active: -2.48.
The same measure for `O=c1[nH]c(=O)c2ccccc2o1` [Carsalam]: inactive: 0.474; for `Nc1ccn([C@@H]2O[C@H](CO)[C@@H](O)[C@@H]2O)c(=O)n1` [Cytarabine]: active: -3.65.
The same measure for `Cn1cc(-c2ccncc2)c(-c2ccc(OCc3ccc4ccccc4n3)cc2)n1`: inactive: 1.23; for `O=C(O)[C@H]1O[C@@H](Oc2cc3oc(-c4ccccc4)cc(=O)c3c(O)c2O)[C@H](O)[C@@H](O)[C@@H]1O` [Baicalin]: inactive: -0.203.
The same measure for `Nc1ccc(S(=O)(=O)Nc2ccccn2)cc1` [Sulfapyridine]: inactive: 0.216.
For the compound `C=CC(=O)Nc1ccc(CN2C(=O)N(c3cc(OC)cc(OC)c3)Cc3cnc(Nc4ccc(N5CCN(C)CC5)cc4)nc32)cc1`, the “nuclei number (z-score)” value is active: -5.38.
The same measure for `c1cncc(CN2CCC(n3ncc4c(N5CCOCC5)nc(-c5ccc6[nH]ccc6c5)nc43)CC2)c1`: active: -3.57; for `COC1CCN(C(=O)c2cc(Cc3n[nH]c(=O)c4ccccc34)ccc2F)CC1`: inactive: 0.582; for `O=C(O)C1(C(=O)O)CCC1.[NH2-].[NH2-].[Pt+2]` [Carboplatin]: inactive: 0.222.
The same measure for `O=c1c(O)c(-c2ccc(O)c(O)c2)oc2cc(O)cc(O)c12` [Quercetin Dihydrate]: inactive: 0.0993; for `O=c1c(O)c(-c2ccc(O)c(O)c2)oc2cc(O)cc(O)c12` [Quercetin]: inactive: 0.178.
On to `COc1ccc(C2=N[C@H](c3ccc(Cl)cc3)[C@H](c3ccc(Cl)cc3)N2C(=O)N2CCNC(=O)C2)c(OC(C)C)c1` [Nutlin-3b], for which the “nuclei number (z-score)” value was inactive: 0.527.
The same measure for `Cc1cnc(C(=O)O)c[n+]1[O-]` [Acipimox]: inactive: 0.393; for `O=C(c1cncc(Br)c1)N1CCC(N2CCCC2)CC1`: inactive: 0.654; for `O=C(Nc1ccc([N+](=O)[O-])cc1O)Nc1ccccc1Br`: active: -2.51.
In the case of `O=C(O)c1cc(I)ccc1NC(=O)[C@H](Cc1ccccc1)NCc1ccccc1` it was inactive: -0.988; in that of `CCN1CCN(Cc2ccc(Nc3ncc(F)c(-c4cc(F)c5nc(C)n(C(C)C)c5c4)n3)nc2)CC1`, active: -4.16; in that of `COCCc1ccc(OCC(O)CNC(C)C)cc1` (stereo unspecified) [Metoprolol Tartrate], inactive: 1.01.
`Nc1nc2[nH]cc(CCc3ccc(C(=O)N[C@@H](CCC(=O)O)C(=O)O)cc3)c2c(=O)[nH]1` [Pemetrexed Disodium Hydrate]: the “nuclei number (z-score)” value was inactive: -0.228.
In the case of `Nc1nc2[nH]cc(CCc3ccc(C(=O)N[C@@H](CCC(=O)O)C(=O)O)cc3)c2c(=O)[nH]1` [Pemetrexed], the “nuclei number (z-score)” value is inactive: 0.0353.
